T1: UNK ZnF1-3 (human, UniProt Q9C0B0 31-174)
T1 sequence: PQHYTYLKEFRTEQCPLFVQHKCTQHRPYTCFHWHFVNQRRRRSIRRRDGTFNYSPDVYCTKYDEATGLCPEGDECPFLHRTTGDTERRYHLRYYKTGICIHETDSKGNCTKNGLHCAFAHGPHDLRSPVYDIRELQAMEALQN

B1: chr18:33688888:33688889:-_ENSG00000141424_ENST00000269187|hu_hu|FALSE|FALSE (ssRNA)
RNA: GGGAGUUCUACAGUCCGACGAUCUGCUUGAAUUCAUUAAAUAUAUUUAGAUUUCUGUAUUAUACAAAGUUAAAUGUACAACUAAAUUAGUAUAUGAAAAGUGCUCACUACGUUUUUACGGGAAAUAAUCCUGACAAAAAUGUUCAACAGAGGAUUGAGCAUCA
B2: chr8:41367971:41367972:+_ENSG00000147533_ENST00000520817|hu_hu|motif|central (ssRNA)
RNA: GGGAGUUCUACAGUCCGACGAUCAAUAUACAGUAUUAUUCCUAUCAAAUUUUUUUCUCAUAAGUUAUAUUUAUAACAAAACGGUAAUUAAAAUAUUUUUUAUACCUGCUUAUUCCAUAUCCAGGGACACAGCGGGAACAUUUACAACAGAGGAUUGAGCAUCA
B3: 95067662_95069423_764_3pUTR_ENSMUSG00000015711_ENSMUST00000015855|mouse|control|control (ssRNA)
RNA: GGGAGUUCUACAGUCCGACGAUCACCUCUGCUACGGCCUCCUCCAGAGCUGCAUCGCUUUUGGGUAAAAUAUGGUGGUCAACAAGGAUGAGGGUGAGCUGGCCAGCCUGGUGCAGGGCUAGGAGGUCAAUCUCGUCCCGGAAGCAACAGAGGAUUGAGCAUCA
B4: 94014883_94016523_1437_CDS_ENSG00000137942_ENST00000370253|human|control|control (ssRNA)
RNA: GGGAGUUCUACAGUCCGACGAUCUAGAGUACCUUCAUUAUGUCCAUCAAAAGGGUAGAUAGCUUUGCAGUGUCCAAUAGCAGGCAAGGGAUCAUCAUCCUCAAAUUCAUCAUCAAACUCAUUGUGGUGACCAUGCUGCUGGGGCAACAGAGGAUUGAGCAUCA
B5: chr11:29608462:29608463:+_ENSMUSG00000020458_ENSMUST00000102843|mus_mus|FALSE|FALSE (ssRNA)
RNA: GGGAGUUCUACAGUCCGACGAUCAAGGUCACAGGGCAAUUCUGAGCAAGGCAACGAAUUGGCCCCGCUCUGGACAUUAGCAAUUUCACUUUUGUUGGAUACUUCUAGGUCAGUGUACUCCUUAGGAGAAUCAUCUUUAGCACUCAACAGAGGAUUGAGCAUCA
B6: chr2:232597714:232597715:-_ENSG00000156973_ENST00000287600|hu_hu|motif|central (ssRNA)
RNA: GGGAGUUCUACAGUCCGACGAUCGAAAAGUCUCACUCUGGAUGUGCUUACAAGAAGAUCGUCGUCAAAAAACUUUGUUUCGGUGAUAACGUUCCCAGUUAAGACGCUUGCUGGCAUCAUCUGGGACUCGGGUGCUGCCUCUAUCAACAGAGGAUUGAGCAUCA
B7: chr7:151048522:151048523:+_ENSG00000013374_ENST00000566856|hu_mus|hu_hu_hu_mus_True|38_98 (ssRNA)
RNA: GGGAGUUCUACAGUCCGACGAUCCUGUUUCUUAUUUAUGACAAUUUUGAUGUAAUUUUCUUGAAAUCCGAAAGUUUCAGCUAUUUGACACCUCAGGUCUCUGCCAGUGACAUGCAAGCGGGUCUCCAACAAGCUUUUCUUAUCCAACAGAGGAUUGAGCAUCA
B8: 69964948_69965068_5129_ncRNA_ENSMUSG00000029208_ENSMUST00000154728|mouse|control|control (ssRNA)
RNA: GGGAGUUCUACAGUCCGACGAUCUAAUCACUAUAGCAUCCUAACUUACUGUGAUAUACUAUUAAGACGCUUAGAAACCAUUGAAGAUAUGUCAGAUGUAGCAAUGAUCUUUGUCUUUGAAGCAAAACCAACAUUAUUUAGCUUCAACAGAGGAUUGAGCAUCA
B9: 96397689_96402886_1621_CDS_ENSG00000111144_ENST00000228740|human|control|control (ssRNA)
RNA: GGGAGUUCUACAGUCCGACGAUCAAGAGGUGCCCUCUGGAGCGUCUGUGCUAAAAACUCAUUCAAUUGAUGAGAAGAGAGAUCCUUCAGGUCUGUGGCAUUGAAUGAAUUUAAAUCAUCUUCUUUGGCAGUAAUCCAUCUUUGCAACAGAGGAUUGAGCAUCA
B10: chr3:142137402:142137403:-_ENSG00000114127_ENST00000264951|hu_hu|motif|central (ssRNA)
RNA: GGGAGUUCUACAGUCCGACGAUCAUCAGAUACUACGUCAACCCCCAUCUUCGUCAUGUAAUAUGUUCUUUUAUAUUGUCGGAACUCAGUUUCAAAUAGGUCAUCAUCUUCAGUCUCAUCUUCUAAAUUAUCCUUAGAAGUUAUCAACAGAGGAUUGAGCAUCA
B11: chr13:30959905:30959906:-_ENSMUSG00000021357_ENSMUST00000021785|mus_mus|FALSE|FALSE (ssRNA)
RNA: GGGAGUUCUACAGUCCGACGAUCAUGGAUGCUUCCAAACAAAUCAGGAGAAGAAACAUCAACAGAAAGAUGAGUAGUAUCUAUGUCUGCAUCAGGCUUGGUGCUCAGUUGUUCCAGGCAGUAUAUAAAAACCUGCAUGAUAUUCAACAGAGGAUUGAGCAUCA
B12: 75878501_75878621_370_3pUTR_ENSMUSG00000034098_ENSMUST00000038364|mouse|control|control (ssRNA)
RNA: GGGAGUUCUACAGUCCGACGAUCUGGGCACAUAGGGUUCCAGUGGGCGUUGCCUCCAGGUGCCCAAGCAGGCGAUCCCUUACACCCGGGGUUCAGCACCGACACUCUGUGGACAGCACCAGCUCCGCUCACGUCCAGUUUGUCCAACAGAGGAUUGAGCAUCA
B13: chr11:100882373:100882374:+_ENSMUSG00000019302_ENSMUST00000044721|mus_mus|mus_mus_mus_hu_True|28_38 (ssRNA)
RNA: GGGAGUUCUACAGUCCGACGAUCUUCCUGGUUUGUGUUGAUUUCCUUCAGUUCAUUUUCAAUCUUCUCAAAAUUGGCCUCUAAGUCAAUCAUGUCCCGAGGGAAGGGCACCUCUGGGUUUUCACCGGUGUCCAUAAUCGGAAUCAACAGAGGAUUGAGCAUCA
B14: chr17:65740002:65740003:+_ENSG00000130935_ENST00000581375|hu_hu|hu_hu_hu_mus_False|48_98 (ssRNA)
RNA: GGGAGUUCUACAGUCCGACGAUCAACAAAUCUUUCUCUGGAUGAAGAACAGGAAGAUUCAUAUUAAAAAAAAUAUAUAUCCAUCAAGGAGAAUUGAGUGGCCACACCUUUACUCCCAGCACUUUGGGAGGUGGAUCUCUGAGUCAACAGAGGAUUGAGCAUCA
B15: 98652892_98654833_1226_CDS_ENSG00000065150_ENST00000490680|human|control|control (ssRNA)
RNA: GGGAGUUCUACAGUCCGACGAUCAAAAAGUAAAACAAAAUUUACGAUCUCAUUUAGAAUUCCUUCCAUUUGCUGGUGGCACCCUUCACCAAUGGCAGAUAAGGCCAUCAAUCCUGCAUGCCGGUAUUUCCAGUCAGGAUUUUGCAACAGAGGAUUGAGCAUCA
B16: chr8:126034020:126034021:+_ENSG00000104549_ENST00000265896|hu_hu|FALSE|FALSE (ssRNA)
RNA: GGGAGUUCUACAGUCCGACGAUCCUUAAAGCAAAAAUACACGGCAUAGAUUGCAACAGCAAAGAAGUGUCCAAUUAAAACUAGAGGGUUAGGAGACAAUACAGAAAGCAGCCCAACAGGACCCGCAACACAUUCGCCACCAAGCAACAGAGGAUUGAGCAUCA
B17: 61725924_61726915_1310_CDS_ENSG00000082898_ENST00000401558|human|control|control (ssRNA)
RNA: GGGAGUUCUACAGUCCGACGAUCUUCCAUUACAAACUGACACAGUUGAAAUAUCUGUGAGAAUUCAUUGCACAUGCUGUCUUUUAAAUGCUUAGAUUUGACUUGGGUUAUCUGUCCACUAGAGAAAUCAAAUACUUCUUCACUCAACAGAGGAUUGAGCAUCA
B18: chr4:107545374:107545375:+_ENSMUSG00000028613_ENSMUST00000106731|mus_mus|motif|central (ssRNA)
RNA: GGGAGUUCUACAGUCCGACGAUCGUUGAUGGAUAGCCACAAAGCAUAAUUUUAUUUACAAAAAAAUCAAGCCCCUCAAACCGGAAAAAGCUCUCAACUCAAACAUCCUCUGUAAAUACUGUAUUCAAAUGAUGAGUGAAGUUUCAACAGAGGAUUGAGCAUCA
B19: chr2:162087991:162087992:+_ENSG00000136560_ENST00000392749|hu_hu|FALSE|FALSE (ssRNA)
RNA: GGGAGUUCUACAGUCCGACGAUCUUUUCCCGGGGAAUCGAGUGAGGGAAAAGGUGCAUCAGAUGGGUCCAGAAGUGGGAAGCUAUUUACAUAUAAUGCAUUAUGGUCUCCAGGUGGCAAACACGCAGCUCUAUCCAGAGUUGUCAACAGAGGAUUGAGCAUCA
B20: 30653276_30653396_590_CDS_ENSG00000146112_ENST00000399199|human|control|control (ssRNA)
RNA: GGGAGUUCUACAGUCCGACGAUCCCUCCAGUCCCGAGCCUCCAGAGGCCUCAGGCUCAACUCUUGGGCUCCCCCUAUCCCCAGCCUCCUCUCUCUGGUCUCCCUCGGACUUAGUCUCUCUUCUCUUGACUCUCUUCCCUUGGGCAACAGAGGAUUGAGCAUCA
B21: chrX:20248820:20248821:+_ENSMUSG00000001924_ENSMUST00000001989|mus_mus|mus_mus_mus_hu_True|88_88 (ssRNA)
RNA: GGGAGUUCUACAGUCCGACGAUCGGCGAAGUCCGUCACCACAAAGUCAGGCUCUACCAGUGAGGCCACCAAGGAUUUAAAGCUAAUCUUCUUAGGUACUUUGACCUGACUGACGAUGCCUCCACGGAUGUAGUCGGAGAAGUUCAACAGAGGAUUGAGCAUCA
B22: chr16:94664741:94664742:+_ENSMUSG00000040785_ENSMUST00000117648|mus_hu|mus_mus_mus_hu_False|48_98 (ssRNA)
RNA: GGGAGUUCUACAGUCCGACGAUCUGGUACUGAUCUUUGCAUUGGAUAUUCAGGAGAAAGGCUGGCCAAGGGUGUAUAUAUGCUGGUGAACUGCGACAAACCUGGUAACACGUUUAUGUAUGCUGGCGGUGUCUGGGUGAUAUCCAACAGAGGAUUGAGCAUCA

The list shows a part of the results.

The assay has as its target T1, UNK ZnF1-3. Briefly: nsRBNS (natural sequence RNA bind-n-seq); RBNS binding buffer (assumed for nsRBNS): 25 mM Tris pH 7.5, 150 mM KCl, 3 mM MgCl2, 0.01% Triton X-100, 500 ug/ml BSA, 20 U/ml SUPERase-In, 4 C; UNK is unkempt and MSI1 is Musashi-1; names of the RNAs are library labels; protein concentration not given here; high values mean tight binding.
B1 returned a binding signal of 0.847 enrichment R. B2: the binding signal came out at 1.27 enrichment R.

In the case of B3, the binding signal is 1.5 enrichment R. The same measure for B4: 1.08 enrichment R; for B5: 0.492 enrichment R. Turning to B6, the binding signal is 0.875 enrichment R.

In the case of B7, the binding signal is 0.944 enrichment R. Under B8 stands 0.576 enrichment R; under B9, 0.854 enrichment R.

In turn, B10 yielded a binding signal of 0.84 enrichment R. Regarding B11, the binding signal is 1.22 enrichment R.

For the molecule B12, the binding signal came out at 0.686 enrichment R. In turn, B13 came in with a binding signal of 0.433 enrichment R. Under B14 stands 2.68 enrichment R; under B15, 0.497 enrichment R.

As to B16, the binding signal came to 1.35 enrichment R. On to B17, for which the binding signal is 0.621 enrichment R. The molecule B18 yielded a binding signal of 1.7 enrichment R. For B19, the binding signal worked out at 1.23 enrichment R. B20 registered a binding signal of 0.822 enrichment R. In the case of B21, the binding signal is 0.951 enrichment R.

For B22, the binding signal stood at 1.07 enrichment R.

(Values after article PMC12136788.)
